# Experimental data from the supplement of paper PMC3334620.
# The full ranking holds about 33,000 sequences; the median of “E-score (-0.5 to 0.5)” is about -0.054, and the highest 2% start at about 0.35. The list shows a part of the results.
# Biological target: T1, Stb5 (UniProt P38699)
# T1 sequence: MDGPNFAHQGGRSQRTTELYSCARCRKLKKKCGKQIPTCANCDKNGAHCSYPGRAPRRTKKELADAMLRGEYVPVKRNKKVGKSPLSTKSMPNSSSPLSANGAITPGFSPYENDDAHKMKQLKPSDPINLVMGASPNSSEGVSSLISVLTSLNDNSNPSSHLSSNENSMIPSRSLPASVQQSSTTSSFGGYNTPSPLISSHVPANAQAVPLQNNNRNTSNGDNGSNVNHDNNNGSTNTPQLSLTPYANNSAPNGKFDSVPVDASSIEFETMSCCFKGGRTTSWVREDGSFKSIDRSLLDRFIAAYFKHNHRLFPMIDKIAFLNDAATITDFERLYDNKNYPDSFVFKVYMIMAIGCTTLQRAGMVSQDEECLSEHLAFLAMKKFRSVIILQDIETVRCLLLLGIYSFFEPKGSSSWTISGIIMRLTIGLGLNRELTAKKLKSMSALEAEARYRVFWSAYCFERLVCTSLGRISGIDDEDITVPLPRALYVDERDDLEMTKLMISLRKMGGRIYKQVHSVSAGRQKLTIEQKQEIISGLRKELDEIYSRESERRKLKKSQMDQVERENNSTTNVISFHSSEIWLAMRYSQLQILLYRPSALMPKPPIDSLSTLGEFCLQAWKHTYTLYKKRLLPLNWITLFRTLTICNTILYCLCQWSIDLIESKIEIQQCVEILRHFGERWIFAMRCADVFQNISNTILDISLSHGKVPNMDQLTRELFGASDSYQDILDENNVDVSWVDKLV
# Test: PBM E-score (8-mer binding enrichment) (E-score (-0.5 to 0.5)); higher = stronger / more preferred TF binding; most listed sequences are background and not binding sites
# Conditions: protein concentration: 200 nM; construct: GST-full length
# Method: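 Universal 'all 10-mer' protein binding microarrays (Agilent AMADID 015681) probed with GST-tagged S. cerevisiae TFs (full-length or DBD) made by in vitro transcription/translation (PURExpress), about 100-200 nM. Bound TF was detected with fluorescent anti-GST. Each ungapped 8-mer (which stands for itself and its reverse complement) is scored by the PBM enrichment score (E-score), a modified Wilcoxon-Mann-Whitney statistic from -0.5 to +0.5, computed with the Universal PBM Analysis Suite. Scale: above 0.35 generally sequence-specific binding.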
row,Sequence,PBM E-score
1,GAAGTCGA,-0.259
2,AACTGTTG,-0.29
3,GATTCCCC,0.0389
4,ATGGTTTG,-0.0136
5,ATAGCAGA,-0.0949
6,AAGCCGCA,0.147
7,GCTCTCAA,-0.239
8,AGCCAAGC,-0.198
9,CTGGTACA,-0.194
10,GGGGACTA,-0.0234
11,GAAAGGCC,0.348
12,GGGAACCA,-0.172
13,CAAAACAG,-0.0698
14,AGTAAAGA,0.143
15,AATTTATC,0.167
16,ACCTGGAC,-0.216
17,CTAGATAC,0.0359
18,AATCGGAG,0.263
19,AAAACTAT,0.047
20,CAAGACAA,-0.112
21,GGGTGCCA,-0.012
22,TGCTCCCA,-0.298

row,Sequence,PBM E-score
1,AGCCACCG,0.265
2,CTAGGTCC,0.2
3,GCGACAGA,0.0503
4,GAACACCC,0.0757
5,CTACAAAA,-0.0352
6,AATCTTTG,-0.297
7,GCAGCTGA,-0.0273
8,TTGTACAA,-0.314
9,AGGTAAAA,0.137
10,GTCCACAC,0.162
11,CTGGAATA,-0.0237
12,ACTGAGTA,-0.294
13,GATATATC,0.307
14,AAGACCAG,-0.107
15,AACTACGC,0.124
16,CGTTTAGA,0.0366
17,GAGCGCCA,0.108
18,ATAGCCGC,0.312
19,CGTCGACC,0.00836
20,ACTCCATA,-0.00832
21,ACGGCGCG,0.186
22,CACCGCAG,0.344

row,Sequence,PBM E-score
1,GTAGCAAC,-0.113
2,CACGTTGG,-0.29
3,AACAGGCA,-0.186
4,CTTACACA,-0.124
5,GTCACCCA,-0.0904
6,ACATTTCA,-0.095
7,AATCCCGA,0.394
8,ATAATGCA,0.0012
9,ATAGTTCA,0.00051
10,GCCGGAAC,0.266
11,ACACCCGG,0.234
12,AGTTGCAT,-0.0338
13,CGTGGAAA,0.0968
14,ACAGCAAA,-0.0535
15,CTTGCTCA,-0.194
16,ACATACAT,-0.0182
17,AATATGGG,-0.244
18,CGCAGCAC,0.0723
19,AGAGCATA,-0.0737
20,GCTCGGAC,0.242
21,ATTCTTGC,0.0606
22,CGTCTGCC,0.178

row,Sequence,PBM E-score
1,AGGAAAAA,-0.215
2,GCCGCAAA,0.182
3,TATTAGAA,-0.136
4,ACCCTAAA,-0.0556
5,GCAGGTAC,-0.0218
6,ACCATGGG,-0.119
7,GTATACTA,-0.0132
8,CCCATGGG,-0.194
9,AGAAGCAT,-0.0965
10,CGTAATGC,0.178
11,TCAAGAAA,0.0175
12,AATACCTA,-0.168
13,AAAGCGAT,-0.0748
14,CGCTACAG,0.0486
15,ATGCTACC,0.107
16,CACCAAGG,0.0902
17,GAGAAAAA,0.213
18,TCCGGTAA,0.266
19,ATTCGATA,0.0602
20,GGAAAAAA,0.141
